# Test results: PubChem BioAssay AID485364 (National Center for Advancing Translational Sciences (NCATS), 2010)
# Among all 360,000 compounds or so, about 11,000 (3.1%) were called active. This list was built around the results that the source calls inconclusive (neither active nor inactive); the mix of calls is not that of the screen. Calls follow the shape of the dose curve; as a rule, active = well fitted inhibition curve with a large enough effect; inconclusive = small, poorly fitted or top-dose-only effect; inactive = no such curve, though single readings can be large or run the other way. No potency is given beside an inconclusive call; the fits are too rough.
# Molecular target: Schistosoma mansoni thioredoxin glutathione reductase (TGR) (UniProt Q962Y6)
# Assay: qHTS Assay for the Inhibitors of Schistosoma Mansoni Peroxiredoxins; also: nearly all actives have a fitted effect of over 60% in size
# Conditions: purified TGR, DTNB reduction, TNB absorbance 405 nm; activity change, negative = inhibition: at 114 µM (top of the series) unless noted
# How it was run: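 Kinetic colorimetric format: TGR-catalysed, NADPH-driven DTNB reduction monitored via TNB absorbance. Enzyme dispensed at 20 nM; compound exposure 15 min at room temperature before reaction start.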
# % is scaled to controls: 0 for no effect and ±100 for the full control effect; potency is read from the fitted curve at half-maximal effect; tags tell the direction and shape of the fitted curve.
SMILES,Potency,"activity change, negative = inhibition"
COc1ccc(C2Nc3ccccc3C(=O)N2Cc2ccco2)cc1COc1ccc(F)cc1 (stereo not drawn),"inconclusive [inhibitor, partial curve]",–
O=C(/C=C/c1cccc(OCc2ccccc2)c1)c1cccnc1,"inconclusive [inhibitor, full curve]",–
CCc1ccc(NC(=O)c2noc(C(C)C)c2[N+](=O)[O-])cc1,"inconclusive [inhibitor, full curve]",–
COC(=O)c1ccc(-c2noc(CN3C[C@H]4CC[C@H]3C4)n2)cc1,"inconclusive [inhibitor, partial curve]",–
Cc1cc(O)c(C(c2ccccc2)N2CCCCC2)c(=O)n1Cc1ccco1 (stereo not drawn),active: 10 µM,–
O=C(O)c1ccccc1-c1ccc(/C=C/c2cc(C(F)(F)F)[nH]c(=O)n2)o1,"inconclusive [inhibitor, partial curve]",–
c1ccc(Nc2nc(-c3cccnc3)cs2)nc1,inactive,–
CCOC(=O)c1ccc(NC2=CC(c3ccc(OCC)cc3)N(c3ccc(C(=O)OCC)cc3)C2=O)cc1 (stereo not drawn),inactive,–
CC1(C)CC(C(=O)NCCC(c2ccccc2)c2ccco2)CCO1 (stereo not drawn),"inconclusive [inhibitor, partial curve]",–
CCC12CCCN3CCC4(C(=C(C(=O)OC)C1)Nc1ccccc14)C32 (stereo not drawn),"inconclusive [inhibitor, full curve, poor fit]",–
COc1cccc(-c2nc(CS(=O)(=O)CC(=O)NCCCOC(C)C)c(C)o2)c1,"inconclusive [inhibitor, partial curve, poor fit]",–
C[C@@H]1CC=C[C@H]2[C@H]1C(=O)N(Cc1ccccc1)[C@H]2c1ccc2ccccc2c1Br,"inconclusive [inhibitor, partial curve]",–
Nc1nc2c(s1)C(=O)CCC2,"inconclusive [inhibitor, full curve, poor fit]",–
CCOC(=O)c1c(C)[nH]c(C=C2C(=O)CCCC2=O)c1O,"inconclusive [inhibitor, partial curve]",–
CCOc1ccc(C2C=C(c3ccc(C)cc3)Nc3ncnn32)cc1 (stereo not drawn),"inconclusive [inhibitor, full curve]",–
CC(C)/C=C1\CCc2c([nH]c3ccccc23)C1=O,inactive,–
COc1cc(Nc2ccc(C)cc2)c([N+](=O)[O-])nc1[N+](=O)[O-],active: 25.1 µM,–
CC1CCC(NC(=O)c2cccc(S(=O)(=O)N3CCN(c4ccc(F)cc4)CC3)c2)CC1 (stereo not drawn),inactive,–
O=C1CC(c2ccco2)Cc2nc(Nc3nc(-c4ccccc4)c4ccccc4n3)ncc21 (stereo not drawn),"inconclusive [inhibitor, partial curve]",–
Cc1nnc2c(N3CCN(C(=O)c4ccco4)CC3)nc3ccccc3n12,"inconclusive [inhibitor, full curve]",–
CCN1CCc2c(sc(N)c2C#N)C1,"inconclusive [inhibitor, partial curve]",–
CCN(Cc1ccccc1)S(=O)(=O)c1ccc(S(=O)(=O)N(Cc2ccccn2)Cc2ccco2)cc1,"inconclusive [inhibitor, full curve, poor fit]",–

SMILES,Potency,"activity change, negative = inhibition"
C#CCOCCOCCOCCNc1nc(N2CCN(C(=O)CCCCCCCCCCNC(=O)[C@@H](CCSC)n3cc(CCO)nn3)CC2)nc(N2CCN(C(=O)CCCCCCCCCCNC(=O)[C@H]([C@@H](C)CC)n3cc(CCCCN=C(N)N)nn3)CC2)n1,"inconclusive [inhibitor, partial curve]",–
O=[N+]([O-])c1ccc(-c2nnc(-c3ccccc3)c(NCCCO)n2)cc1,inactive,–
CC(=O)N1CCc2cc(Br)cc(S(=O)(=O)CCC(=O)N3CCN(c4ccc(F)cc4)CC3)c21,"inconclusive [inhibitor, partial curve]",–
C=CCc1cc(C=O)cc(OC)c1OCc1ccc(Cl)cc1,"inconclusive [inhibitor, partial curve]",–
COc1ccc(S(=O)(=O)NCC(c2cccs2)S(=O)(=O)c2ccccc2)cc1OC (stereo not drawn),active: 1 µM,–
Cc1ccc(C(C)C)c(OCC#CCN2CCOCC2)c1,"inconclusive [inhibitor, partial curve]",–
CN(C(=O)CS(=O)(=O)Cc1ccccc1Cl)c1ccccc1,"inconclusive [inhibitor, partial curve]",–
COc1cc(C(=O)Nc2ccc(NC(=O)c3ccco3)nc2)cc(OC)c1OC,–,inconclusive: -39.1% [inhibitor]
O=C(Nc1ccccc1)c1cccc(N2CCCS2(=O)=O)c1,"inconclusive [inhibitor, single point]",–
COc1cc(C(=O)OCC(=O)c2c[nH]c3ccccc23)ccc1OCC(=O)N1CCOCC1,"inconclusive [inhibitor, partial curve]",–
COc1cccc2cc(C(=O)N3CCN(C(=O)c4ccco4)CC3)c(=O)oc12,inactive,–
CCc1noc(C)c1C(=O)N1CCN(S(=O)(=O)c2ccc(Cl)s2)CC1,inactive,–
CCOC(=O)N1CCC(NC(=O)c2ccc3nc4ccccc4c(=O)n3c2)CC1,inactive,–
N#Cc1c(-n2cccc2/C=N/O)sc2c1CCCC2,inactive,–
O=C(OCc1cc(Cl)ccc1OC(F)F)c1ccc([N+](=O)[O-])o1,active: 12.6 µM,–
CSCCc1nc(SCC(=O)Nc2nnc(C)s2)[nH]c1C,"inconclusive [inhibitor, partial curve]",–
CC(C)Cc1cc(C(C)(C)C)ccc1OC(=S)N(C)C,inactive,–
CC(C)C(OC(=O)c1ccco1)C(=O)NCc1ccco1 (stereo not drawn),"inconclusive [inhibitor, single point]",–
CCCN(CCC)C(=O)CC(c1ccc(F)cc1)c1ccco1 (stereo not drawn),active: 11.2 µM,–
C/C(CCC(=O)O)=N/Nc1ccc([N+](=O)[O-])cc1[N+](=O)[O-],"inconclusive [inhibitor, partial curve]",–
O=C(CC1C(=O)NCCN1Cc1cccc(C(F)(F)F)c1)NC1CCOCC1 (stereo not drawn),"inconclusive [inhibitor, partial curve]",–
